# Measurements: PubChem BioAssay AID2451 (National Center for Advancing Translational Sciences (NCATS), 2010)
# The whole screen tested about 290,000 compounds, of which about 2,100 (0.72%) were called active. Inconclusive results, whose numbers are uncertain, are shown with a selection of clear calls. Calls come from the whole dose curve; as a rule, active = well fitted inhibition curve with a large enough effect; inconclusive = small, poorly fitted or top-dose-only effect, or effect the other way; inactive = flat fitted curve, though single readings scatter. Potencies beside an inconclusive call are fits to weak or partial responses and may not hold up.
# Target: Fructose-bisphosphate aldolase (Giardia intestinalis (strain ATCC 50803 / WB clone C6)) (UniProt A8B2U2)
# Chain of UniProt A8B2U2 (A8B2U2 whole entry, looked up): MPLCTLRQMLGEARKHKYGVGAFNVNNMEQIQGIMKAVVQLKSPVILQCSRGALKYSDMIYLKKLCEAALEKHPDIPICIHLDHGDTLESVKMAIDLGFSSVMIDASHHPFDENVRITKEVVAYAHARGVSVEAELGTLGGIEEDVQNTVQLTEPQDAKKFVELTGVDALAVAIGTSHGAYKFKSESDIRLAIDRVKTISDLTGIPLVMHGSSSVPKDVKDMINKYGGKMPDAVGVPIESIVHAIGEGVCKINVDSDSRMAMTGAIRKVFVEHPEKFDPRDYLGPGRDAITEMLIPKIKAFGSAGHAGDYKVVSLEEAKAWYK
# Test: qHTS Assay for Inhibitors of Fructose-1,6-bisphosphate Aldolase from Giardia Lamblia; note: nearly all actives have a fitted effect of over 55% in size
# Conditions: purified Giardia FBPA; activity, negative = inhibition: at 59.6 µM (top of the series) unless noted
# Excerpt: Assay Provider: Osnat Herzberg, University of Maryland
# The objective of this project is to obtain compounds that inhibit Giardia lamblia growth. G. lamblia is a human pathogen which afflicts impoverished nations; it is the most common cause of outbreaks of diarrhea in the United States. During the course of our study of potential drug targets in Giardia, we have identified the Class II (Zn2+ functions in electrophilic catalysis) fructose-1,6-bisphosphate aldolase (FBPA) as an excellent candidate for drug targeting. FBPA is a key glycolytic pathway enzyme, essential for G. lamblia survival. The human FBPA belongs to the Class I aldolases, which have a different substrate binding site structure and a radically different catalytic mechanism (employing a lysine-Schiff base intermediate). Therefore, affinity-based or mechanism-based inhibitors of the Giardia FBPA are expected not to interfere with the catalytic function of the human FBPA.
# A glyceraldehyde-3-phosphate dehydrogenase/triose phosphate isomerase/NAD/arsenate coupled assay was adapted to the 1536-well HTP format for use in the primary screen. This was done by coupling it to a diaphorase/resazurin/resorufin reaction that can be monitored by fluorescence (excitation, 544 nm; emission, 590 nm). Compounds identified in this screen will be further evaluated by coupling the glycerol-3-phosphate/triose phosphate isomerase/NADH assay to a phenazine methosulfate/tetranitroblue tetrazolium color reaction. False positives due to the dehydrogenases and diaphorase inhibition will be eliminated, and selectivity assay will triage inhibitors of mammalian triose phosphate isomerase and the Class I FBPA. G. lamblia FBPA inhibitors identified by the in vitro analyses will be examined for growth inhibition of Giardia trophozoites, and for cytotoxicity in human cells.
# Step,Parameter,Value,Description
# 1,Enzyme reagent,2 uL,40 nM FBPA
# 2,Compound,23 nL,3.68 nM-57.5 uM final concentration
# 3,Time,10 min,RT Incubation
# 4,Substrate/detection Reagent,2 uL,Substrate + enzyme coupling system + AmpLite Red kit
# 5,Time,20 min,RT Incubation
# 6,Detector,525 nm/598 nm (Fluorescence),ViewLux Fluorescence Read (Read 1)
# 1,Medium-binding black solid-bottom Kalypsys plates. FRD or Kalypsys dispenser, 2 uL of FBPA enzyme. Bottle kept at 4C.
# 2,Compound Library (10 mM ,1:5 dilution). Pin-transferred for a [final] range of 3.68 nM-57.5 uM.
# 4,FRD or Kalypsys dispenser, 2 uL of reaction mixture. Bottle kept at 4C and covered in foil to protect from light.
# 6,ViewLux Protocol 1194; Excitation filter wheel A (525/20 Pol; BODIPY TMR FP), Emission filter wheel B (598/25 S; BODIPY TMR FP S).
# Keywords: Fructose-bisphosphate aldolase, FBPA , Giardia lamblia , Giardia, HTS, Inhibitors
# % is set by controls: 0 for no effect and ±100 for the full control effect; potency is the fitted concentration of half-maximal effect; tags give direction and shape of the fitted curve.
Compound,Potency,"activity, negative = inhibition"
Cc1cc(C)nc(Nc2ccccc2Cl)n1,"inconclusive: 28.2 µM [inhibitor, single point]",
CCOC(=O)C1CCN(C(=O)c2cc(COc3ccc(OC)c4ccccc34)on2)CC1,"inconclusive: 15.8 µM [inhibitor, partial curve]",
CN1CCN(C(=S)NC(=O)c2ccc(Br)cc2)CC1,active: 17.7 µM,
Nc1c(C(=O)O)cnc2c(-c3ccc(Cl)cc3)cnn12,"inconclusive: 17.7 µM [inhibitor, partial curve]",
N#Cc1ccccc1NC(=S)NC(=O)c1cccs1,active: 10 µM,
CCN(CC)C(=O)COc1cc(C)c(Cl)c(C)c1,,inactive: -5.11%
O=C(COc1ccc(Br)cc1)N1CCN(Cc2ccc3c(c2)OCO3)CC1,"inconclusive: 28.2 µM [inhibitor, partial curve]",
CCOC(=O)Cc1cc(=O)n(-c2nc3ccccc3s2)[nH]1,"inconclusive: 11.2 µM [activator, partial curve]",
CC1CCN(C2=C(NS(=O)(=O)c3ccc(Cl)cc3)C(=O)c3ccccc3C2=O)CC1,"inconclusive: 7.92 µM [inhibitor, partial curve]",
CCN1C(=O)c2cccc3c(S(=O)(=O)NCc4ccco4)ccc1c23,"inconclusive: 8.89 µM [inhibitor, partial curve]",
N/C(=N\OC(=O)N1CCOCC1)c1ccc(Cl)cc1,,inactive: -1.61%
CC(C)CNC(=S)N1CCN(C(c2ccccc2)c2ccccc2)CC1,,inactive: -1.01%
CCN(CC)C(=O)c1ccc2c(c1[N+](=O)[O-])C(=O)c1ccccc1C2=O,"inconclusive: 0.5 µM [inhibitor, full curve]",
CCN(Cc1cc(=O)n2ccsc2n1)c1cccc2ccccc12,"inconclusive: 15.8 µM [inhibitor, partial curve]",
Cc1cccc(OCC(=O)N2CCC(c3ccccc3)C2)c1 (stereo not drawn),,inactive: -0.764%
O=C1Nc2ccc(Br)cc2C(c2ccccc2Cl)=NC1O (stereo not drawn),"inconclusive: 15.8 µM [inhibitor, single point]",
COC(=O)c1ccc(NC(=S)NC(=O)c2c(Cl)cnn2C)cc1,"inconclusive: 15.8 µM [inhibitor, partial curve, poor fit]",
Cc1ccc(Cn2nnnc2CN2CCC(O)(c3cccnc3)CC2)cc1,"inconclusive: 22.3 µM [inhibitor, single point]",
Clc1cccc(CNCCc2ccc3c(c2)OCO3)c1,"inconclusive: 14.1 µM [inhibitor, partial curve]",
S=C(S)OC1CC2CC1C1CCCC21 (stereo not drawn),,inactive: 17.9%
CCC(C)n1c(O)c(/C=N/NC(=O)c2ccncc2)c(=O)[nH]c1=S (stereo not drawn),"inconclusive: 44.6 µM [activator, single point]",
OCC1(CCOc2ccccc2)CCN(Cc2nc3ccc(F)cc3[nH]2)CC1,,inactive: 0.271%
COc1ccc(-c2coc3c(CN4CCOCC4)c(O)ccc3c2=O)cc1,,inactive: 2.1%
CCN(CC)c1ccc2oc(=O)c(C)nc2c1,active: 2.51 µM,

Compound,Potency,"activity, negative = inhibition"
Cc1cnn(C(=S)NCc2ccco2)c1,active: 15.8 µM,
C/C(=N\OC(=O)c1cccc(C)c1)c1sc(-c2ccccc2)nc1C,,inactive: 5.59%
CNNC(=S)Nc1cccc(SC)c1,"inconclusive: 19.9 µM [inhibitor, single point]",
CCN(CC)c1nc(SCCOC(=O)Nc2ccccc2)nc(N(CC)CC)n1,,inactive: -2.83%
CCn1c(=O)c2c3c(sc2n2c(=S)[nH]nc12)CCC3,"inconclusive: 12.6 µM [inhibitor, partial curve]",
CCOC(=O)C1CCN(Cc2cc(Cl)c3ccccc3c2O)CC1,"inconclusive: 25.1 µM [inhibitor, single point]",
COc1ccc(CN2CCNC(=O)C2CC(=O)N(C)Cc2nccs2)cc1OC (stereo not drawn),"inconclusive: 28.2 µM [inhibitor, single point]",
CCOc1ccc(Cl)cc1S(=O)(=O)N1CCC(C(=O)NCc2cccnc2)CC1,,inactive: -0.779%
CCCCc1nc2ccn(CC(=O)N(C)C)c(=O)c2n1Cc1ccc(-c2ccccc2-c2nn[nH]n2)cc1,"inconclusive: 15.8 µM [inhibitor, partial curve]",
Cc1[nH]n(-c2ccccc2)c(=O)c1C(C[N+](=O)[O-])c1ccc(F)cc1 (stereo not drawn),"inconclusive: 1.77 µM [inhibitor, partial curve]",
CCN(CC(=O)Nc1ccccc1OC)CC(=O)Nc1ccccc1-c1ccccc1,active: 17.7 µM,
Cc1ccc(C(=O)N2CC(C)CC(C)C2)cc1NC1=NC2CS(=O)(=O)CC2S1 (stereo not drawn),"inconclusive: 20 µM [inhibitor, single point]",
COc1cc(C2C3=C(CCCC3=O)Nc3[nH]n(-c4ccccc4)c(=O)c32)ccc1O (stereo not drawn),"inconclusive: 15.8 µM [inhibitor, partial curve]",
COCCNc1nnc(SCC(=O)Nc2sc3c(c2C(=O)c2ccccc2)CCCC3)s1,"inconclusive: 15.8 µM [inhibitor, single point]",
CCCCn1c(NS(=O)(=O)c2ccc(C)cc2)c(C(=O)OCC)c2nc3ccccc3nc21,"inconclusive: 1.58 µM [inhibitor, full curve]",
CC1(C)Cc2c(C#N)c(N)sc(=S)c2CO1,"inconclusive: 6.29 µM [inhibitor, partial curve]",
Cc1ccc(SCCCCN2C(=O)NC(C)(C)C2=O)cc1,,inactive: -0.13%
NC(=O)C1CCN(C(=S)c2ccc(-c3ccc(Br)cc3)o2)CC1,active: 3.54 µM,
Cc1cc(=O)[nH]c(SCc2nc3ncccn3c2Br)n1,"inconclusive: 15.8 µM [inhibitor, partial curve]",
O=c1cc(-c2ccco2)nc(SCc2cccc(Cl)c2)[nH]1,,inactive: -26.8%
COc1cc(CNC2CCCc3ccccc32)cc(OC)c1OC (stereo not drawn),"inconclusive: 31.5 µM [inhibitor, single point]",
Cc1cc(C)nc(-n2nc(C)cc2NC(=O)CNCc2ccccc2)n1,"inconclusive: 17.8 µM [inhibitor, partial curve]",
COc1ccc(OC)c(NC(=O)CCn2ccnc2)c1,,inactive: 12.8%
Cn1c(CN2CCCC2)nc2cc(NC(=O)COc3ccccc3)ccc21,,inactive: -0.0605%
